According to the supplement of paper PMC10126150:
Sequences with one replicate were seen in a single cluster, so their values are uncertain.

System: ATP
Assay: switch fluorescence ratio, 500 uM ATP over buffer (Cy3 cluster intensity, sum of 5 cycles each) (fold (ratio)); higher = stronger signal-on switching upon ATP binding; sequences stand for … in TCGTCGGCAGCGTCAGATGTGTATAAGAGACAGTTTTTTTTTTTTTTTTTTTTTTTTT…TC
Conditions: aptamer strand: ATP DNA aptamer (quencher-CACCTGGGGGAGTATTGCGGAGGAAGG + anchor), 100 nM annealed; ATP concentration: 500 uM; one replicate
Summary of the method: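 Clusters carrying Cy3-labelled switching strands on a modified Illumina MiSeq flow-cell were annealed to 100 nM quencher-labelled ATP aptamer and imaged in selection buffer. They were imaged again after 15 min with 500 uM ATP at 22 °C, over five buffer/ATP cycles with NaOH stripping and re-annealing in between. For each cluster, the fluorescence ratio is the summed Cy3 intensity of the target cycles divided by that of the buffer cycles, averaged per switch-domain sequence. Clusters outside 100-1000 RFU were left out.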
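Note: ATP exposure 15 min at 22 °C before imaging.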

| Sequence | switch fluorescence ratio |
| --- | --- |
| ATTATTGAAC | 1.02 |
| CTTTTCAGCT | 1 |
| CTCGCGCGGC | 1.49 |
| GACGTGTCTC | 1.01 |
| CATGAGGGCT | 1.03 |
| GGTTCTCTCT | 1.02 |
| ACACCGTAAG | 1.02 |
| GTATGCACGG | 0.925 |
| ATGTACTCCT | 1.13 |
| CAATTCGCAC | 1.79 |
| TCCGGTCACT | 1.07 |
| AGTGATATGT | 0.982 |
| TCAATAAGT | 0.982 |
| TCCTCGGGCC | 1.37 |
| TTAAATACCC | 2.81 |
| GGCTTCTGG | 0.996 |
| CAATGGGCCC | 0.988 |
| TGATGCTATG | 0.974 |
| TTAGACGGAT | 0.961 |
| TGCCTGGTCG | 1.04 |
| ACCCAGGCAG | 1.31 |
| GGGACGCTCG | 0.956 |
| CCACAGTACG | 1.87 |
| ACTCACCTCC | 1.55 |
| CGGTATGAAC | 1.01 |
| AACGGGGCC | 1.04 |

| Sequence | switch fluorescence ratio |
| --- | --- |
| AGAACTATTC | 0.977 |
| CGGTCACGTG | 1.02 |
| AAATTACGTA | 1.18 |
| ACGGCTGATC | 1.05 |
| ATGTGCACAA | 0.985 |
| GATTCGAGTA | 1 |
| GATCCCCCTA | 1.04 |
| GATTTGTAGT | 0.956 |
| TCCACTAATT | 1.03 |
| AGAGAGTACA | 0.993 |
| AGGGCCTCGG | 0.964 |
| GGCTAGACGA | 1.01 |
| CTTTGGCTAC | 2.08 |
| GTTCTATTGA | 0.996 |
| ACCACTAAGT | 1.04 |
| CAAGCTAGTT | 0.976 |
| GGGTGATGG | 0.983 |
| CCGAATAGGT | 0.96 |
| GCGCGCATAA | 0.98 |
| GGCCACAGAG | 1.03 |
| ATGTGGAGTG | 0.981 |
| TACTACTCGT | 1.01 |
| GAACACGCGA | 1.31 |
| GAGACTAGTT | 0.925 |
| ATGCCATGGT | 0.991 |
| TTATGGGGCT | 1.05 |

| Sequence | switch fluorescence ratio |
| --- | --- |
| ATTGGGATTG | 1.01 |
| CATACGAGG | 1.05 |
| GAATCCCCCA | 1.11 |
| ACGAGGGA | 1.08 |
| CTTGAGATA | 0.97 |
| CAAGGGTTAT | 1 |
| TCGGAGTCAC | 1.45 |
| CAAGCCCTC | 1.02 |
| GGTCTGCAGG | 0.983 |
| TAGGTATTGC | 1.06 |
| AAGTTTGCGC | 0.975 |
| AGGATGATTT | 1 |
| GTAATATTTG | 0.979 |
| TACAGTGTTC | 0.953 |
| TTATAGGAT | 0.994 |
| TATTGTCTGC | 1 |
| CTAGCAACAT | 1.23 |
| CGTAGACTGA | 0.986 |
| GGGGGCTCGT | 0.975 |
| CATGACGTGC | 1.07 |
| CTATCGAGCC | 0.968 |
| GTTTTCAGAG | 0.997 |
| GGTTCAATGT | 0.997 |
| CTACGACACA | 1.49 |
| AAGTGAAGTA | 0.972 |
| GTTTCGTGTT | 1.02 |

| Sequence | switch fluorescence ratio |
| --- | --- |
| CATCTCGATC | 1.07 |
| GTCATTACCT | 1.02 |
| TTCCGGCGAT | 1.04 |
| TCGTCCAT | 0.991 |
| AGTAAGTTAT | 1.01 |
| CGATTATTT | 1.01 |
| AGAGGTCTTT | 0.975 |
| CCATGTGGTT | 1.01 |
| TGACGGATCG | 0.939 |
| GATCGGTATA | 0.982 |
| GAGTTCTAAG | 0.986 |
| GACGAATATA | 1.14 |
| CTATAATCTT | 0.998 |
| CATGGGAA | 0.921 |
| TTCGTTGGA | 0.931 |
| GGCGCCATTC | 1.02 |
| CGGGTTACTG | 0.984 |
| ATCTGACTCG | 1.28 |
| GAATAGAAGT | 0.969 |
| GTACGATTGG | 0.986 |
| AGTGTCTCC | 1.03 |
| AGCACCAGGC | 1.01 |
| AGTGATGG | 1.03 |
| GTGGCAGAGT | 1.01 |
| ACGGTTCACA | 1.13 |
| CCGGCAGCTG | 1.12 |

| Sequence | switch fluorescence ratio |
| --- | --- |
| AGTCGCCGAG | 0.956 |
| CATGCTCCAT | 0.993 |
| CAATACTGAA | 1.04 |
| CCCCGTAAGT | 2.98 |
| GAATTCCCAA | 1.03 |
| GCACCACTGA | 1.07 |
| CTAAACGTTG | 0.966 |
| GACATAACCG | 1.08 |
| AGTTGCTGGG | 0.977 |
| CTGCCCGGAG | 1.33 |
| GTTTCAAAGA | 1.03 |
| CGGTAATCC | 1.08 |
| ATCAGGTGGC | 1.36 |
| TTGCTAGGTA | 1.03 |
| TGACAAATGG | 1.01 |
| TGCAAAATCG | 1 |
| GTCCTGCAGA | 1.07 |
| CTATTGGGGG | 1.01 |
| GTTAAGGGCT | 0.957 |
| AATCAACTCG | 1.01 |
| CGGGAGCTAG | 1.03 |
| CCTTGCGGAG | 1.69 |
| TAATTATAAC | 0.981 |
| GTTTAGGTGA | 0.988 |
| CGTGCCTGGA | 1.01 |
| TACCTGTTGT | 0.986 |

| Sequence | switch fluorescence ratio |
| --- | --- |
| AACTTGTGCG | 1.04 |
| CCCGGTGTCG | 0.982 |
| CATATTAATT | 1.02 |
| CTTTATGCCA | 0.96 |
| AGGCCAGAGT | 0.985 |
| GCAGTTAAAT | 1.01 |
| CAGTTCCGGA | 1.09 |
| GTGCAAAAT | 1.01 |
| GAAACGTCTT | 0.994 |
| CGTATTTGTT | 1.02 |
| TGACCACAGC | 1.12 |
| GGATCCAAAG | 1.02 |
| CTCACATGCA | 1.03 |
| GCAGTCCTGA | 1.02 |
| TCTCTCAT | 0.975 |
| TATGGAGGCG | 1.03 |
| TCTTGTCTTT | 0.983 |
| TCGACTTAAT | 1 |
| AGATACGTCA | 1.08 |
| ATCGGTAGTC | 0.978 |
| CATCGAAGTC | 1.03 |
| CCTATGTTTT | 1.02 |
| ATGTCGTCGT | 1.02 |
| CGGTATGCCA | 1.01 |
